{"source": "paper PMC4336329", "about": "(PLoS ONE, 2015)", "note": "In all, about 310,000 compounds went through this assay and about 2,200 (0.71%) showed an effect of 50% or more. The effect is printed as a negative number. The list shows a part of the results.", "data": [{"molecular_target": "human ether-à-go-go-related gene (hERG) potassium channel (human, UniProt Q12809)", "sequence (Q12809 whole entry, looked up)": "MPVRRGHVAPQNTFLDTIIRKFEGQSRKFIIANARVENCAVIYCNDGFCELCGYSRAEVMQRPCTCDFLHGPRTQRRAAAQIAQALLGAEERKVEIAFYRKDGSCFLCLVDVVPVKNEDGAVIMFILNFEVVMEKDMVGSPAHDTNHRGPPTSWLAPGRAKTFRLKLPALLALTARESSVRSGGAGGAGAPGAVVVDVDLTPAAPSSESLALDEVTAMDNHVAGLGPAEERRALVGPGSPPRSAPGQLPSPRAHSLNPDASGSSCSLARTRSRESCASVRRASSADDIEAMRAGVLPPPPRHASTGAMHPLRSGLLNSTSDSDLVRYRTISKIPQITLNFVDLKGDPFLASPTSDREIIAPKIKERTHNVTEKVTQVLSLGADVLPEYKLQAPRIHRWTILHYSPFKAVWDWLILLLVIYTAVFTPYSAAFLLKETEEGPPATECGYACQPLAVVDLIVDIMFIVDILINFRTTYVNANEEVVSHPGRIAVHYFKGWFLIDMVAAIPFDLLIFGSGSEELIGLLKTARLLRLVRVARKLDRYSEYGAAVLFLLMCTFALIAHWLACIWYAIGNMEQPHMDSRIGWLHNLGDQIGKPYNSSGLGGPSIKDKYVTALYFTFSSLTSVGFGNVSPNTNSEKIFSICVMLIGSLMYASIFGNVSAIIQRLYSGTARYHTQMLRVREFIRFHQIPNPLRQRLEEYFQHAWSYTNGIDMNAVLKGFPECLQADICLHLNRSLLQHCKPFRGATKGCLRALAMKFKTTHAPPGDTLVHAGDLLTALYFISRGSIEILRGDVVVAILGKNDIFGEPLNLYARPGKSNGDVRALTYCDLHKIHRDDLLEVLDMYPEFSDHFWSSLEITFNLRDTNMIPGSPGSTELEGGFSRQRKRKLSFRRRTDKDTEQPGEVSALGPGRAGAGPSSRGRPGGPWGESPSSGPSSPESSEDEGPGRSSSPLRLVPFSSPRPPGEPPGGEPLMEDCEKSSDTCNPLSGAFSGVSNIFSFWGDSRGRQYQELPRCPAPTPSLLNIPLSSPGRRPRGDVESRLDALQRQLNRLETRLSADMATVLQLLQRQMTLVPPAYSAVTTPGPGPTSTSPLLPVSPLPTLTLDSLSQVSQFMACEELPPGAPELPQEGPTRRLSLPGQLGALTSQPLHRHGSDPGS", "assay": "primary screen, population patch clamp on CHO cells stably expressing hERG", "units": {"hERG current change (%, negative = inhibition) at 1uM": "%"}, "values": [{"smiles": "O=S(=O)(c1cccs1)N1CCC(CO)(Cc2ccc(Cl)cc2)CC1", "hERG current change (%, negative = inhibition) at 1uM": 13.4}, {"smiles": "Cc1nc(NC(=O)c2ccco2)sc1C(=O)Nc1ccc(Br)cc1", "hERG current change (%, negative = inhibition) at 1uM": 4.19}, {"smiles": "COc1ccccc1-c1noc(Cn2cc(S(=O)(=O)N3CCCC3)ccc2=O)n1", "hERG current change (%, negative = inhibition) at 1uM": 3.6}, {"smiles": "O=C(c1cccc(Cl)c1)c1nn(-c2ccccc2)c(=O)cc1C(F)(F)F", "hERG current change (%, negative = inhibition) at 1uM": 14.4}, {"smiles": "Cn1c2ccccc2c(=O)c2c(=O)n(C3CCCCC3)c(-c3cccs3)nc21", "hERG current change (%, negative = inhibition) at 1uM": 0.315}, {"smiles": "O=C(NNC(=O)c1ccccc1O)c1ccc(-c2ccc([N+](=O)[O-])cc2)o1", "hERG current change (%, negative = inhibition) at 1uM": 12.9}, {"smiles": "CCC(C)Sc1ccc([C@H]2N[C@@](CC(C)C)(C(=O)OC)[C@H]3C(=O)N(CC)C(=O)[C@@H]23)cc1.O=C(O)C(F)(F)F", "note": "(stereo partly drawn)", "hERG current change (%, negative = inhibition) at 1uM": -2.07}, {"smiles": "CC(C)NC(=O)N(O)C1N(C(C)C)C(=O)N(Cc2ccc3c(c2)OCO3)C1(C)C", "note": "(stereo not drawn)", "hERG current change (%, negative = inhibition) at 1uM": 18.1}, {"smiles": "COCCn1c(SCc2ccc(Cl)cc2)nc2c1c(=O)[nH]c(=O)n2C", "hERG current change (%, negative = inhibition) at 1uM": 12.9}, {"smiles": "Cc1ccc(NC(=O)NC2CCCN2S(=O)(=O)c2ccc(Cl)cc2)cc1", "note": "(stereo not drawn)", "hERG current change (%, negative = inhibition) at 1uM": -13.3}, {"smiles": "O=C(Nc1ccc(N2CCOCC2)cc1)c1ccc2nc(-c3ccco3)c(-c3ccco3)nc2c1", "hERG current change (%, negative = inhibition) at 1uM": 0.933}, {"smiles": "CC1(C)Cc2ccccc2C(=O)N1", "hERG current change (%, negative = inhibition) at 1uM": 12.4}, {"smiles": "Cc1ccc(S(=O)(=O)NC(=NC(Cc2ccccc2)C(=O)O)c2ccccc2)cc1", "note": "(stereo not drawn)", "hERG current change (%, negative = inhibition) at 1uM": 6.63}, {"smiles": "NC(=O)C1CCN(C(=O)c2ccc(Cl)c(S(=O)(=O)NCc3ccco3)c2)CC1", "hERG current change (%, negative = inhibition) at 1uM": 7.34}, {"smiles": "Cc1ccc2nc(C)cc(N3CCOCC3)c2c1.Cl", "hERG current change (%, negative = inhibition) at 1uM": -3.17}, {"smiles": "CC(=O)c1cccc(NC(=O)C2CCN(C(=O)c3ccccc3Cl)CC2)c1", "hERG current change (%, negative = inhibition) at 1uM": 13.1}, {"smiles": "O=C(COc1ccccc1[N+](=O)[O-])N(Cc1ccco1)C1CCS(=O)(=O)C1", "note": "(stereo not drawn)", "hERG current change (%, negative = inhibition) at 1uM": 5.14}, {"smiles": "Cc1cc(NC(=O)CCCn2ccc([N+](=O)[O-])n2)n(Cc2ccc(F)cc2)n1", "hERG current change (%, negative = inhibition) at 1uM": 2.72}, {"smiles": "Cc1cccc(C)c1NC(=S)N1CCCCCC1", "hERG current change (%, negative = inhibition) at 1uM": 10.2}, {"smiles": "Cc1ccc(-c2ccc(=O)n(CC(=O)NCCCN3CCCCC3)n2)cc1", "hERG current change (%, negative = inhibition) at 1uM": 1.65}, {"smiles": "Cc1ccc(C)c(NC(=O)C(=O)NCCCN2CCOCC2)c1", "hERG current change (%, negative = inhibition) at 1uM": 6.58}, {"smiles": "COC(=O)c1[nH]c2c(c1C)C(=O)CC(c1cccs1)C2", "note": "(stereo not drawn)", "hERG current change (%, negative = inhibition) at 1uM": 12.7}, {"smiles": "CC1CCCC(C)N1S(=O)(=O)c1ccc(NC(=O)CCn2cnc3ccccc3c2=O)cc1", "note": "(stereo not drawn)", "hERG current change (%, negative = inhibition) at 1uM": 5.42}, {"smiles": "CC1(C)CC(=O)CC2(C1)NCC(c1ccccc1)c1c2[nH]c2ccccc12.Cl", "note": "(stereo not drawn)", "hERG current change (%, negative = inhibition) at 1uM": -83.4}, {"smiles": "Cc1nc(N2CCOCC2)sc1C=O", "hERG current change (%, negative = inhibition) at 1uM": 0.997}, {"smiles": "O=C(O)CCc1nc2ccccc2n(CCc2ccccc2)c1=O", "hERG current change (%, negative = inhibition) at 1uM": 10.5}, {"smiles": "COc1ccc(C2c3c(ncn(CCCO)c3=N)Oc3ccc4ccccc4c32)cc1", "note": "(stereo not drawn)", "hERG current change (%, negative = inhibition) at 1uM": 0.449}, {"smiles": "COc1nsnc1NS(=O)(=O)c1ccc(NC(=S)NC(=O)c2ccncc2)cc1", "hERG current change (%, negative = inhibition) at 1uM": 8.9}, {"smiles": "CC1CCCC(C)N1C(=O)COC(=O)c1cccc(S(=O)(=O)N(C)c2ccccc2)c1", "note": "(stereo not drawn)", "hERG current change (%, negative = inhibition) at 1uM": 7.4}, {"smiles": "COc1ccc2oc(=O)cc(-c3cc4ccccc4o3)c2c1", "hERG current change (%, negative = inhibition) at 1uM": -1.03}, {"smiles": "Nc1cnn(-c2ccccc2)c(=O)c1Cl", "hERG current change (%, negative = inhibition) at 1uM": 15.9}, {"smiles": "COc1ccc(-n2c(-c3ccc(Br)cc3)c[n+]3c2CCC3)cc1.[Br-]", "hERG current change (%, negative = inhibition) at 1uM": -21}, {"smiles": "COc1ccc(/C=N/NC(=O)CN2CCSCC2)c(OC)c1", "hERG current change (%, negative = inhibition) at 1uM": 8.06}, {"smiles": "Cc1cccc(NC(=S)c2nc3ccccc3s2)c1", "hERG current change (%, negative = inhibition) at 1uM": 10.5}, {"smiles": "CCOc1ccccc1Oc1c(C)oc2c(CN3CCN(CCO)CC3)c(O)ccc2c1=O", "hERG current change (%, negative = inhibition) at 1uM": 13.7}, {"smiles": "O=C(NCc1ccco1)c1nc2ccccc2s1", "hERG current change (%, negative = inhibition) at 1uM": 8.2}, {"smiles": "Cc1cccc(NC(=O)Nc2ccc([N+](=O)[O-])cc2)n1", "hERG current change (%, negative = inhibition) at 1uM": 9.91}, {"smiles": "Cc1nn(C(C)C(=O)N2CCOCC2)c(=O)c2nn(-c3ccccc3)c(C)c12", "note": "(stereo not drawn)", "hERG current change (%, negative = inhibition) at 1uM": -1.97}, {"smiles": "CC(Oc1ccc(Cl)cc1Cl)C(=O)Nc1ccc(S(=O)(=O)Nc2cnc3ccccc3n2)cc1", "note": "(stereo not drawn)", "hERG current change (%, negative = inhibition) at 1uM": 12.8}, {"smiles": "Cc1ccccc1CN(C)CCc1ccccn1.O=C(O)C(=O)O", "hERG current change (%, negative = inhibition) at 1uM": 8.94}, {"smiles": "COc1cc(S(=O)(=O)NC2CCCC2)c(OC)cc1C", "hERG current change (%, negative = inhibition) at 1uM": 2.99}, {"smiles": "S=C(NCc1ccncc1)Nc1ccc(Br)cc1", "hERG current change (%, negative = inhibition) at 1uM": 9.63}, {"smiles": "CN1C(=O)C2(c3ccccc31)c1c(oc3ccccc3c1=O)C(=O)N2CCO", "note": "(stereo not drawn)", "hERG current change (%, negative = inhibition) at 1uM": 7.4}, {"smiles": "COc1ccc(C(=O)C2CCCN(C(=O)Cn3ccc(C)n3)C2)cc1OC", "note": "(stereo not drawn)", "hERG current change (%, negative = inhibition) at 1uM": 3.89}, {"smiles": "COCC(C)NS(=O)(=O)c1ccccc1", "note": "(stereo not drawn)", "hERG current change (%, negative = inhibition) at 1uM": 14.1}, {"smiles": "O=C(CN1CCN(c2ccc(Cl)cc2)CC1)Nc1ccc(F)c(F)c1", "hERG current change (%, negative = inhibition) at 1uM": -1.8}, {"smiles": "CCCN=C(N)/C(C(=O)OCC)=C(\\O)c1ccc(OC)cc1", "hERG current change (%, negative = inhibition) at 1uM": -2.28}, {"smiles": "COC(=O)CCC(=O)Nc1nnc(C(F)(F)F)s1", "hERG current change (%, negative = inhibition) at 1uM": 14.4}, {"smiles": "Cc1cc(C(=O)COC(=O)c2ccc3c(c2)OCO3)c(C)n1Cc1cccs1", "hERG current change (%, negative = inhibition) at 1uM": 18.4}, {"smiles": "COCC(C)NC(=O)CCc1nnc(C2(c3ccc(Cl)cc3)CCC2)o1", "note": "(stereo not drawn)", "hERG current change (%, negative = inhibition) at 1uM": 12.5}, {"smiles": "CCOc1ccc(CCNC(=O)Cn2cccc2C(=O)c2ccccc2)cc1OCC", "hERG current change (%, negative = inhibition) at 1uM": 3.1}, {"smiles": "CC1CCCCC1NC(=O)COC(=O)c1ccccc1NC(=O)c1ccco1", "note": "(stereo not drawn)", "hERG current change (%, negative = inhibition) at 1uM": 3.75}, {"smiles": "Cn1c(SCC(=O)c2ccccc2)nnc1-c1ccncc1", "hERG current change (%, negative = inhibition) at 1uM": 13.7}, {"smiles": "O=S(=O)(Nc1cccc2ccccc12)N1CCCC1", "hERG current change (%, negative = inhibition) at 1uM": 8.62}, {"smiles": "Cc1csc(NC(=O)CN2CCCCCC2)n1.O=C(O)C(=O)O", "hERG current change (%, negative = inhibition) at 1uM": 15.5}, {"smiles": "COC(=O)c1cc(OC)c(OC)c(OC)c1N", "hERG current change (%, negative = inhibition) at 1uM": 12.2}, {"smiles": "Cc1ccccc1OCC(=O)NCC(c1cccs1)N1CCOCC1", "note": "(stereo not drawn)", "hERG current change (%, negative = inhibition) at 1uM": 3.3}]}]}
